# Laboratory results from the supplement of paper PMC3334620.
# In all, about 33,000 sequences were measured (“E-score (-0.5 to 0.5)”: median about -0.01, highest 2% from about 0.26 on). The list shows a part of the results.
# Target: Ste12 (UniProt P13574)
# Assay: PBM E-score (8-mer binding enrichment) (E-score (-0.5 to 0.5)); higher = stronger / more preferred TF binding; most listed sequences are background and not binding sites
# Conditions: protein concentration: 200 nM; construct: GST-DNA-binding domain
# Outline: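 Universal all-10-mer Agilent arrays, double-stranded by primer extension on fresh or once-stripped slides, were probed with about 100-200 nM GST-tagged yeast transcription factors made by PURExpress. Fluorescent anti-GST detected bound protein, and masliner normalised the scans. E-scores from the Universal PBM Analysis Suite were given to each ungapped eight-base word pooled with its reverse complement.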
row,Sequence,PBM E-score
1,GGAACGAA,0.18
2,ACCCCTTA,-0.172
3,GTGTAAGA,0.058
4,CTAGAGAG,-0.288
5,CTACCGTC,-0.103
6,CTTCAGGC,-0.0906
7,CGCTAGAG,-0.304
8,AACGGATC,0.0513
9,CGATTAGC,0.00866
10,ATCATTCA,0.108
11,TAAGGTAA,0.138
12,GCTGCAGC,0.134
13,GCGGATTA,0.0582
14,ACTTTGCT,-0.169
15,CGGGTTAC,0.0422
16,GAGAGAGA,-0.0897
17,CGTCATAC,0.111
18,AATTCGGC,-0.054
19,GCCTTTAA,0.0888
20,CTGCGCGA,-0.0987
21,ATATGTGG,0.0175
22,AGACAACT,-0.0623
23,GCTTCGAA,-0.0707
24,GGTAAACA,0.28
25,AGCTGAAC,-0.288

row,Sequence,PBM E-score
1,AAATCTGG,0.21
2,AAGGGGGC,-0.0414
3,AGTGAAGC,-0.055
4,ATGGGGAA,0.0391
5,GTGATCAC,0.0151
6,AATCGACC,-0.0437
7,AGTTCCCC,-0.00638
8,AAGTAAGG,0.0451
9,AAAGCATC,0.0596
10,TACTCGAA,0.0179
11,CCTGCATA,-0.143
12,CCCAGTAC,-0.237
13,AGGACTTA,-0.242
14,AATGGGTA,0.076
15,GCCCCTCC,0.445
16,CGCGGATC,-0.0673
17,CGCACAGC,-0.165
18,AACGGTAT,-0.0208
19,CGAGTGAC,-0.00135
20,CCCGCGTC,0.119
21,GAGTAGCC,-0.0669
22,TCCTTTAA,0.0668
23,GTGTCGCA,0.087
24,GGGAGACA,-0.131
25,AATGTGCC,-0.152

row,Sequence,PBM E-score
1,GCGTTACC,-0.13
2,CCGCGAGC,-0.133
3,CACCAGTC,-0.222
4,ATCGTAGG,-0.0943
5,GCGACACA,0.0605
6,AGATTGCA,0.0114
7,CGTAGATA,-0.122
8,CCGGGCAA,-0.0289
9,ATATAATG,-0.0272
10,ACTGTGGG,-0.0905
11,CCCCGCTA,0.135
12,GGTCGTTA,-0.0562
13,GGGTAGCA,-0.0648
14,TCACCAGA,-0.0558
15,CCTAACCA,0.2
16,AGAGACCG,-0.184
17,GCCCAATA,-0.00934
18,ATTGTCAC,0.086
19,TACAATAA,-0.0434
20,GGGACGAC,-0.248
21,AGCGACGA,-0.148
22,TACCATAA,0.175
23,GTGCCACA,-0.304
24,ATGTTGCA,0.00732
25,AAAGGTCA,0.0359

row,Sequence,PBM E-score
1,AAGAGCGC,-0.00431
2,ACCCCCGG,-0.146
3,GGAACACA,-0.0414
4,ACTATCCC,-0.15
5,CGGGTAAG,-0.135
6,CGTTAAAA,-0.00084
7,CTTGGAGC,-0.236
8,GCACCTCC,0.0167
9,CATGGAGC,-0.0519
10,GCCGTATA,0.168
11,AAAGCGGA,0.0831
12,CATCCGAA,0.117
13,CGGCCGTC,-0.175
14,CACTGCCC,-0.185
15,AGGCGGCG,-0.00081
16,ACTATTCG,-0.0254
17,CTGACATA,0.0958
18,CGGCACTA,0.0668
19,AAATCTTA,0.218
20,CTTTCGTC,0.00288
21,CCAAGAAG,-0.0885
22,CCGCATAA,0.22
23,CGATTCGC,0.0897
24,GCCGACGA,0.17
25,ACGTAGAC,-0.231

row,Sequence,PBM E-score
1,CGAACTAC,-0.0296
2,ACTATAAC,-0.0368
3,CTGAGAGC,-0.214
4,AGAGGTCC,0.0463
5,ACAGTAGC,-0.145
6,GATTGCAA,0.143
7,AGATGCGC,-0.106
8,CCCGGTAG,-0.103
9,CTCATCCA,0.0168
10,TTGGGAAA,0.231
11,ATCTTACA,0.00715
12,CGTAAAGC,-0.0333
13,TAATATCA,0.181
14,AGAAAAGC,0.127
15,GACGAGAA,0.0115
16,GGCGCACA,0.0457
17,AGGACACT,-0.173
18,TACTAGGA,0.131
19,CCAATCGG,0.0393
20,ACCGAGCC,0.00701
21,ACCCAATC,0.0585
22,AGAACCAA,0.0474
23,AGGATTGA,0.0179
24,CTGGGCGC,-0.00387
25,AGCAATCG,-0.00294

row,Sequence,PBM E-score
1,CAATTGGG,-0.0554
2,GACTGGCA,0.0106
3,GAGTGATA,0.0321
4,AACGCCAA,0.146
5,AGAAGGAG,-0.115
6,ATGGCCGG,-0.0835
7,CCCGCTCA,0.105
8,ATGTGGCC,-0.142
9,AGTGTGGC,0.00736
10,GGAACCCA,-0.0382
11,CATTCCAG,-0.177
12,ATCTTGTC,0.042
13,CCTTCGCG,0.028
14,CGCATGGA,-0.189
15,CATTATGG,0.0151
16,CTCTCTGA,-0.104
17,CTAACCGA,-0.00732
18,CATTGTTA,0.124
19,TACCACGA,-0.0329
20,CGAAGCTC,-0.115
21,GGACTCGA,0.0506
22,ATACGGTC,-0.0962
23,ATTGCGCA,-0.0424
24,ATTGGTTC,0.176
25,CGACACAC,-0.00212

row,Sequence,PBM E-score
1,AGACAGAG,-0.0113
2,ATGCAGCC,-0.0138
3,CGGAATGA,0.078
4,AAGCGAGG,0.0113
5,CAAAACCG,0.0137
6,GATCGAGA,0.092
7,AGGCGCAG,-0.121
8,GATATATA,0.246
9,CGCTATGC,-0.163
10,TGCTCTAA,-0.148
11,ACTACTTC,-0.0884
12,CAGTCTAC,-0.259
13,CGGCAACC,0.0387
14,AGGGAAAT,-0.107
15,CCTTCATC,-0.0404
16,GGTATAAA,0.126
17,GAATGCTA,-0.108
18,GACCGCTA,-0.0916
19,TAACATAA,0.275
20,GCCATTCC,-0.221
21,ATTCTGTG,0.0752
22,GGCTTCTA,-0.0179
